# This is one part of the list.
# Tests used:
# Experiment in all cases: glycan array binding signal (z-score within array); higher = stronger binding
# Details in all cases: glycan notation: IUPAC condensed, linker removed
# [1] = biological target: Fuc(a1-2)Gal
# Summary of the method: (§1)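 The binding signal is a Z-score computed within each array. Data were drawn from 3228 arrays in the Consortium for Functional Glycomics database, restricted to those with a known protein sequence. Scores were averaged over arrays of the same protein sequence at different concentrations or buffers, and over linkers, and negative values can be taken as non-binding.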
# [2] = biological target: Fuc(a1-2)Gal(b1-3)GalNAc
# Summary of the method: as §1
# [3] = biological target: Fuc(a1-2)Gal(b1-3)GalNAc(b1-3)Gal
# Summary of the method: as §1
# [4] = biological target: Fuc(a1-2)Gal(b1-3)GalNAc(b1-3)Gal(a1-4)Gal(b1-4)Glc
# Summary of the method: as §1
# [5] = biological target: Fuc(a1-2)Gal(b1-3)GalNAc(b1-4)[Neu5Ac(a2-3)]Gal(b1-4)Glc
# Summary of the method: as §1
# [6] = biological target: Fuc(a1-2)Gal(b1-3)GlcNAc
# Summary of the method: as §1
# [7] = biological target: Fuc(a1-2)Gal(b1-3)GlcNAc(b1-3)Gal(b1-4)Glc
# Summary of the method: as §1
# [8] = biological target: Fuc(a1-2)Gal(b1-3)[Fuc(a1-4)]GlcNAc
# Summary of the method: as §1
# [9] = biological target: Fuc(a1-2)Gal(b1-4)Glc
# Summary of the method: as §1
# [10] = biological target: Fuc(a1-2)Gal(b1-4)Glc6S
# Summary of the method: as §1
# [11] = biological target: Fuc(a1-2)Gal(b1-4)GlcNAc
# Summary of the method: as §1
# [12] = biological target: Fuc(a1-2)Gal(b1-4)GlcNAc(b1-3)Gal(b1-4)GlcNAc
# Summary of the method: as §1
# [13] = biological target: Fuc(a1-2)Gal(b1-4)GlcNAc(b1-3)Gal(b1-4)GlcNAc(b1-3)Gal(b1-4)GlcNAc
# Summary of the method: as §1
# [14] = biological target: Fuc(a1-2)Gal(b1-4)GlcNAc6S
# Summary of the method: as §1
# [15] = biological target: Fuc(a1-2)Gal(b1-4)[Fuc(a1-3)]GlcNAc
# Summary of the method: as §1
# [16] = biological target: Fuc(a1-2)Gal(b1-4)[Fuc(a1-3)]GlcNAc(b1-3)Gal(b1-4)[Fuc(a1-3)]GlcNAc
# Summary of the method: as §1
# [17] = biological target: Fuc(a1-2)Gal(b1-4)[Fuc(a1-3)]GlcNAc(b1-3)Gal(b1-4)[Fuc(a1-3)]GlcNAc(b1-3)Gal(b1-4)[Fuc(a1-3)]GlcNAc
# Summary of the method: as §1
# [18] = biological target: Fuc(a1-2)Gal6S(b1-4)Glc
# Summary of the method: as §1
# [19] = biological target: Fuc(a1-2)Gal6S(b1-4)Glc6S
# Summary of the method: as §1
# [20] = biological target: Fuc(a1-2)Gal6S(b1-4)GlcNAc
# Summary of the method: as §1
# [21] = biological target: Fuc(a1-2)[Gal(a1-3)]Gal
# Summary of the method: as §1
# [22] = biological target: Fuc(a1-2)[Gal(a1-3)]Gal(b1-3)GlcNAc
# Summary of the method: as §1
# [23] = biological target: Fuc(a1-2)[Gal(a1-3)]Gal(b1-4)Glc
# Summary of the method: as §1
# [24] = biological target: Fuc(a1-2)[Gal(a1-3)]Gal(b1-4)GlcNAc
# Summary of the method: as §1
# [25] = biological target: Fuc(a1-2)[Gal(a1-3)]Gal(b1-4)[Fuc(a1-3)]GlcNAc
# Summary of the method: as §1
# [26] = biological target: Fuc(a1-2)[Gal(a1-4)]Gal(b1-4)GlcNAc
# Summary of the method: as §1
# [27] = biological target: Fuc(a1-2)[GalNAc(a1-3)]Gal
# Summary of the method: as §1
# [28] = biological target: Fuc(a1-2)[GalNAc(a1-3)]Gal(b1-3)GlcNAc
# Summary of the method: as §1
# [29] = biological target: Fuc(a1-2)[GalNAc(a1-3)]Gal(b1-4)Glc
# Summary of the method: as §1
# [30] = biological target: Fuc(a1-2)[GalNAc(a1-3)]Gal(b1-4)GlcNAc
# Summary of the method: as §1
# [31] = biological target: Fuc(a1-2)[GalNAc(a1-3)]Gal(b1-4)[Fuc(a1-3)]GlcNAc
# Summary of the method: as §1
# [32] = biological target: Fuc(a1-2)[GalNAc(a1-4)]Gal(b1-4)GlcNAc
# Summary of the method: as §1
# [33] = biological target: Fuc(a1-2)[GalNAc(b1-3)]Gal
# Summary of the method: as §1
# [34] = biological target: Fuc(a1-3)GlcNAc
# Summary of the method: as §1
# [35] = biological target: Fuc(a1-3)[Gal(b1-4)]Glc6S
# Summary of the method: as §1
# [36] = biological target: Fuc(a1-3)[Gal(b1-4)]GlcNAc
# Summary of the method: as §1
# [37] = biological target: Fuc(a1-3)[Gal(b1-4)]GlcNAc(b1-2)Man(a1-3)[Fuc(a1-3)[Gal(b1-4)]GlcNAc(b1-2)Man(a1-6)]Man(b1-4)GlcNAc(b1-4)GlcNAc
# Summary of the method: as §1
# [38] = biological target: Fuc(a1-3)[Gal(b1-4)]GlcNAc(b1-2)Man(a1-6)[Gal(b1-4)GlcNAc(b1-2)Man(a1-3)]Man(b1-4)GlcNAc(b1-4)GlcNAc
# Summary of the method: as §1
# [39] = biological target: Fuc(a1-3)[Gal(b1-4)]GlcNAc(b1-3)Gal(b1-3)[Fuc(a1-4)]GlcNAc
# Summary of the method: as §1
# [40] = biological target: Fuc(a1-3)[Gal(b1-4)]GlcNAc(b1-4)Gal(b1-4)[Fuc(a1-3)]GlcNAc
# Summary of the method: as §1
# [41] = biological target: Fuc(a1-3)[Gal(b1-4)]GlcNAc(b1-4)Gal(b1-4)[Fuc(a1-3)]GlcNAc(b1-4)Gal(b1-4)[Fuc(a1-3)]GlcNAc
# Summary of the method: as §1
# [42] = biological target: Fuc(a1-3)[Gal(b1-4)]GlcNAc6S
# Summary of the method: as §1
# [43] = biological target: Fuc(a1-3)[Gal3S(b1-4)]Glc6S
# Summary of the method: as §1
# [44] = biological target: Fuc(a1-3)[Gal3S(b1-4)]GlcNAc
# Summary of the method: as §1
# [45] = biological target: Fuc(a1-3)[Gal3S(b1-4)]GlcNAc6S
# Summary of the method: as §1
binder,measurement,setting,value
"Codakine (Codakia orbicularis), Q3KVL7_9BIVA (protein) MKILVAVFLVLVVVGTAAAGCPDGWTQFLDLCYIYQSAKASWASAQSSCQALGGILAEPDTACENEVLIHMCRENGDAGSFGPWLGGQKVGGAWQWSSSGAAFDYLRWGPNEPNNSGGNEDCLHYNWLSWNDLRCHYQASYLCQRAAE",glycan array binding signal (z-score),[1],-0.329
same,glycan array binding signal (z-score),[2],-0.267
same,glycan array binding signal (z-score),[3],-0.266
same,glycan array binding signal (z-score),[4],-0.217
same,glycan array binding signal (z-score),[5],-0.317
same,glycan array binding signal (z-score),[6],-0.3
same,glycan array binding signal (z-score),[7],-0.31
same,glycan array binding signal (z-score),[8],-0.314
same,glycan array binding signal (z-score),[9],-0.26
same,glycan array binding signal (z-score),[10],-0.218
same,glycan array binding signal (z-score),[11],-0.224
same,glycan array binding signal (z-score),[12],-0.213
same,glycan array binding signal (z-score),[13],-0.235
same,glycan array binding signal (z-score),[14],-0.046
same,glycan array binding signal (z-score),[15],-0.3
same,glycan array binding signal (z-score),[16],-0.141
same,glycan array binding signal (z-score),[17],-0.061
same,glycan array binding signal (z-score),[18],-0.328
same,glycan array binding signal (z-score),[19],-0.044
same,glycan array binding signal (z-score),[20],-0.278
same,glycan array binding signal (z-score),[21],-0.293
same,glycan array binding signal (z-score),[22],-0.284
same,glycan array binding signal (z-score),[23],-0.356
same,glycan array binding signal (z-score),[24],-0.342
same,glycan array binding signal (z-score),[25],-0.229
same,glycan array binding signal (z-score),[26],-0.314
same,glycan array binding signal (z-score),[27],-0.333
same,glycan array binding signal (z-score),[28],-0.372
same,glycan array binding signal (z-score),[29],-0.323
same,glycan array binding signal (z-score),[30],-0.324
same,glycan array binding signal (z-score),[31],-0.092
same,glycan array binding signal (z-score),[32],-0.327
same,glycan array binding signal (z-score),[33],-0.351
same,glycan array binding signal (z-score),[34],-0.384
same,glycan array binding signal (z-score),[35],-0.242
same,glycan array binding signal (z-score),[36],-0.333
same,glycan array binding signal (z-score),[37],1.67
same,glycan array binding signal (z-score),[38],6.48
same,glycan array binding signal (z-score),[39],-0.279
same,glycan array binding signal (z-score),[40],-0.321
same,glycan array binding signal (z-score),[41],-0.314
same,glycan array binding signal (z-score),[42],-0.11
same,glycan array binding signal (z-score),[43],-0.121
same,glycan array binding signal (z-score),[44],-0.188
same,glycan array binding signal (z-score),[45],0.159
